The values that follow come from the supplement of paper PMC11417369.

The other results are listed elsewhere or left out.

In the assay the test system is PfAP2-HC AP2 domain (GST-tagged). Nature of the assay: gcPBM binding intensity (ln(normalized median fluorescence intensity)); higher = stronger DNA binding. A digest of the protocol: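 Using an Agilent 4 × 180k array, primer-extended double-stranded 36-bp intergenic genomic probes and negative controls were exposed for 1 h to GST-fused P. falciparum DNA-binding domains expressed in E. coli. Binding was carried out in 1× PBS with 1% milk, 0.2 mg/ml BSA, 0.5% salmon testes DNA and 0.03% Triton X-100, and protein was detected with Alexa488 anti-GST antibody and a 488 nm scan. Binding intensity is the highest Masliner-normalised natural-log median intensity across replicate spots of either probe orientation.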
For “ATATGTAAAACTTCAAAAAAATATATTTTATGACGA [GTGCAC_negctrl_site324]”, the “gcPBM binding intensity (ln)” value turned out to be 9.72.

Turning to “ATCCTACTATGTTATACACACAATTACTTTTTTCTC [CACACA_site3712]”, the “gcPBM binding intensity (ln)” value was found to be 10.1. On to “TTACAACAGAATGGTATTTTTTTATTTTAAAGAAAA [TGCATGCA_negctrl_site230]”, for which the “gcPBM binding intensity (ln)” value was found to be 9.33.

As for “AGATACTTTCCTCAAACACACAAAACTATACAACAA [CACACA_site1474]”, the “gcPBM binding intensity (ln)” value is 10.1. Consider “ATTCAGTTCTATAATACACACATATATTGACATTAT [CACACA_site7309]”, for which the “gcPBM binding intensity (ln)” value came out at 9.94.

For the sequence “ATATTCTTCTAAAGGCGTACATCTACATTTATGAAA [XGTACX_site2145]”, the “gcPBM binding intensity (ln)” value is 9.32. The result for “GTTAGCTCGTTCGGAGCACACACATATATATATATA [CACACA_site8595]” reads 9.84. The figure for “TTTTTTTTTTTTTGGTGTACTTTTTTTAGAACGCAA [XGTACX_site4207]” is 9.33. The result for “AAAATTTATATAGGCACACAAATAAATTAATACATA [CACACA_site1418]” reads 9.85; that for “AAAAATGAAAGGTGTACACATACAAACATAGAAAGA [CACACA_site5020]”, 10.2. With “TTTTTTCTTTCTTTCAAACACACATTAATTTTATTC [CACACA_site2733]”, the “gcPBM binding intensity (ln)” value is 9.75. Take “ATATTAGAAATATGAATAGAAAGAATATATAAGTAT [CACACA_negctrl_site682]”: the “gcPBM binding intensity (ln)” value came out at 9.91. The figure for “TGTTCAAATTTATTCGATCTTTATATTTAATAAAAC [CACACA_negctrl_site781]” is 9.39; for “ATTCTACACCCACATACACACATATATATATATATA [CACACA_site3426]” it is 10.2; for “AGTTCTTCGTACCAAAAAACGGCACGCATATGTATA [TGCATGCA_negctrl_site469]” it is 9.5. For “TGTATTCATACATGCACACGTACATATTTAAATATA [CACACA_site3926]”, the “gcPBM binding intensity (ln)” value was determined as 9.71.

Consider “AATTATATTCTATTCACACATATTCCAACCTCTTTT [CACACA_site4670]”, for which the “gcPBM binding intensity (ln)” value turned out to be 9.89. Regarding “TTTGATGGTACACGTACACACCTTGCAAATATTTTT [CACACA_site4645]”, the “gcPBM binding intensity (ln)” value worked out at 9.89. The result for “TGAAAGAACCTGATTACACACATAAATTATATATAT [CACACA_site26]” reads 9.83. The figure for “ATGAATATAATAAAGAAACACACGTATACATAATGA [CACACA_site1355]” is 10.1; for “TGTATGTTGTAAAATTGTACATATATATTATATTTA [XGTACX_site4883]” it is 9.61.

For the sequence “ATATATAAAATATACACACATACTGTTCATTTAAAG [CACACA_site4169]”, the “gcPBM binding intensity (ln)” value was 9.74. The result for “AAAAAAAATTATATATGTACTTATTAATCCTTATAT [XGTACX_site1389]” reads 9.57; that for “TATTTCAAAAAAAAAAAAAATAAAAAACAACAACAA [CACACA_negctrl_site893]”, 9.56. On to “ATTTATATATCGCCCACACACATGTGATTATTTATA [CACACA_site6905]”, for which the “gcPBM binding intensity (ln)” value came out at 10.1. The result for “TACTACTATCTATATTGTACAAAAGGTGCCTACAAA [XGTACX_site4267]” reads 9.58; that for “TTCATTTATTTACTTACACACTTTATATATGTGGTT [CACACA_site4901]”, 9.9. The result for “TCTATTCAAAATAAAAGTACTAGCATGTGAATTGTT [XGTACX_site5530]” reads 9.49; that for “TACAAGTTTTTAAAGTGTACCAAAAAAAAAGAATAA [XGTACX_site979]”, 9.73; that for “TATCTCTTATTTTATTGTACTTAACTATGCTATAAT [XGTACX_site4904]”, 9.7.

Take “AAAAATAAAAAAATGACACACATATATATATATATA [CACACA_site2307]”: the “gcPBM binding intensity (ln)” value was 10.2. The figure for “TAAGTATAATATTGATGTACATATAATAACTTGTAT [XGTACX_site417]” is 9.88. Take “AAGAGAAATTATAACATGTGAAATGTATTATATATA [TGCATGCA_negctrl_site254]”: the “gcPBM binding intensity (ln)” value was found to be 9.73. The figure for “ATTTATATATAATATACACACATATAATCCACATAT [CACACA_site699]” is 10.3; for “AAGGGAAAATTAAGGTTGCACTAAAAATATATCTTT [GTGCAC_site9608]” it is 9.51; for “ATGAACATACAATATACACACATATATATTTATATT [CACACA_site4609]” it is 10.3. The figure for “TAGTTAACAAATAATGCACACAAATGGATAAAATTA [CACACA_site9240]” is 9.92; for “ATTCAAATTGTAGAAACACACAAAAACTTAACATAT [CACACA_site2617]” it is 9.93; for “CATATGATATGTTATACACACACGTATATATGAATT [CACACA_site3446]” it is 9.92. The result for “CTTTGTGTTAAAAGTAGTACACCAAAAATATGACTT [XGTACX_site622]” reads 9.55; that for “AGATACGATTATATGCGTTCAATATACCAAATAATT [TGCATGCA_negctrl_site501]”, 9.55; that for “TTTTTCATCATATGTTGTACAATGTGTAGATATATT [XGTACX_site3195]”, 9.71.

Regarding “CACGCGCCCGGACACACACACACACCCATATATATA [CACACA_site5251]”, the “gcPBM binding intensity (ln)” value worked out at 11.3. The result for GAATAAATATTAAATGTGCACTTGAATAGATGTAAA reads 9.79; that for “TATTTGTAATATTATACACACATTATATATTACAAA [CACACA_site5804]”, 9.69. The figure for “CGTAGCCACACTAACACACACAAATATACACAATCA [CACACA_site7379]” is 10.7; for “ATTTAAATAACGTATGTATATACATATATATATATA [TGCATGCA_negctrl_site207]” it is 9.76; for “TATTTTGTATATAAATGTACAAGTATATATTTTTTC [XGTACX_site7855]” it is 9.5. On to “GATAAATGTATATATGCATGCACATATATTTATACA [TGCATGCA_site748]”, for which the “gcPBM binding intensity (ln)” value was 9.75. The result for “TGCATTATTTACAAGGTGCGTTACAAATGTGTAACA [GTGCAC_site9442]” reads 9.48.

With “GCTTTAATCTGAAAGTGTACAGATAATATATTTATA [XGTACX_site2462]”, the “gcPBM binding intensity (ln)” value amounted to 9.46. The result for “TATGAATATTTGTATACATGCATATAGAAATCATAT [TGCATGCA_site533]” reads 9.6. The figure for “ATATATTATATATATATATATATATATTATTATTGT [TGCATGCA_negctrl_site286]” is 9.6; for “TACTATAACGCACATACACACAAAAAAAAAAAAAAA [CACACA_site8073]” it is 10; for “TATATATATATTTTTGCATGTAATTTTTATGAGGAC [TGCATGCA_site884]” it is 9.57. Consider “ATATGGTGATATAGGTGTACATTTTGATGCTTATTT [XGTACX_site4283]”, for which the “gcPBM binding intensity (ln)” value was found to be 9.83. The figure for “TTATACATGAAATATTGTACACATATATATATATAT [XGTACX_site4378]” is 9.76; for “ATATATAGAATGTGTACACACATATGTATTTATATA [CACACA_site810]” it is 10.3. The result for “ATTTTTTATGGACAAAAGACCTCTGATGTAAATATA [CACACA_negctrl_site1081]” reads 9.37; that for TTTTTTTTTTTCTTAGTGCGCGTGAAAAATATAAAA, 9.31; that for “AATTAGATTATGCACACACACTTAAAAATAATAAAT [CACACA_site7015]”, 10.7. Take “TTACTCAAACAAACAAAAAAAAAAAAAAAAAAAAAA [TGCATGCA_negctrl_site457]”: the “gcPBM binding intensity (ln)” value amounted to 8.89. The figure for “AGTATACATATATATACACACACACCGATATATATA [CACACA_site8357]” is 10.4; for “TAAAAAAAATAAACGTGTACATAAAAATGAATATGT [XGTACX_site119]” it is 9.86.

“TTAATATATTAAATCTTACACACTAAAAAATATGTA [CACACA_site307]”: the “gcPBM binding intensity (ln)” value came to 9.46. For the sequence “GAAAATATTATAGCACCACACACTTATTTTATATAT [CACACA_site2265]”, the “gcPBM binding intensity (ln)” value was 10.2.

“AACGTTAAAAAAAAAATATATATAAGGAGAAAGCAC [XGTACX_negctrl_site338]”: the “gcPBM binding intensity (ln)” value stood at 9.86. The figure for “TATGCGTCTTGCCTTGCACACTTTTATGAAAAAAAA [CACACA_site5174]” is 9.63; for “TAATTCGCAAAAGAAAGAAATTAAGAAAAAGAAAAA [XGTACX_negctrl_site614]” it is 9.17. For the sequence “TTCAATAGTAAGTATACACACATATATATATATAAA [CACACA_site2687]”, the “gcPBM binding intensity (ln)” value is 9.91. The result for “TTTCTTTTTTTTTTTTCATTGATCCATTTATGATTA [TGCATGCA_negctrl_site225]” reads 9.48; that for “TTATAGGTTCTATACATATATTTATATATGTACAGA [CACACA_negctrl_site60]”, 9.38. The figure for “TTTTTAAAAATATACACACACAGATATTATAGATAT [CACACA_site6511]” is 10.1.

Consider “CAAGCTATGTATTCTACACACACATACACCCATATA [CACACA_site9133]”, for which the “gcPBM binding intensity (ln)” value was 10.1. “TATGAAAAAATATATACACACATAATAAAGGTATAT [CACACA_site3737]”: the “gcPBM binding intensity (ln)” value was determined as 9.9. The result for “TAATATTATATATAAACACACATACCCATGTAAATA [CACACA_site5170]” reads 9.92; that for “TTTGTTTTAAATATTATACACACGTAAAAGTATAAT [CACACA_site7954]”, 9.6. The figure for “AAAAAAAAAAATATATTATTTTACTTGTTTATTTTT [GTGCAC_negctrl_site435]” is 9.55. The figure for “AATAATCAAATATTAAAAATTGTGCAAAAAAAAAAA [XGTACX_negctrl_site399]” is 9.77; for “TCGTACTTGTATTATGCACACATATAATTAAACATA [CACACA_site9089]” it is 9.77. As to “ATATATATATATATATGTACATAATAATATATATTA [XGTACX_site111]”, the “gcPBM binding intensity (ln)” value was 9.93. The result for “TAAAAGGTGTATATAATACACACGTGGGATTAGAAT [CACACA_site610]” reads 9.96; that for “AAAAAATATACATATACACACATATGTATATAGAAT [CACACA_site2170]”, 9.98; that for “TATATAAAGCATTGTAGTACTACCAATATTTTTTTT [XGTACX_site3523]”, 9.79. The result for “AAAATAAACAATGAACAATAAACAATGAACAATGAA [CACACA_negctrl_site1194]” reads 9.82; that for “AAAATATTATAAATTTGTACTTATAAATATTGTATA [XGTACX_site8165]”, 9.55; that for “ATATGTTATATGTAATGTACTTTTGATGTATATATT [XGTACX_site8615]”, 9.81.
